The list shows a part of the results.
B1: PhoQ; a variant is named by its letters at X, in order, P23837 (parent)
chain: MKKLLRLFFPLSLRVRFLLATAAVVLVLSLAYGMVALIGYSVSFDKTTFRLLRGESNLFYTLAKWENNKLHVELPENIDKQSPTMTLIYDENGQLLWAQRDVPWLMKMIQPDWLKSNGFHEIEADVNDTSLLLSGDHSIQQQLQEVREDDDDAEMTHSVAVNVYPATSRMPKLTIVVVDTIPVELKSSYMVWSWFIYVLSANLLLVIPLLWVAAWWSLRPIEALAKEVRELEEHNRELLNPATTRELTSLVRNLNRLLKSERERYDKYRTTLTDLTHSLKTPLXXLQXXLRSLRSEKMSVSDAEPVMLEQISRISQQIGYYLHRASMRGGTLLSRELHPVAPLLDNLTSALNKVYQRKGVNISLDISPEISFVGEQNDFVEVMGNVLDNACKYCLEFVEISARQTDEHLYIVVEDDGPGIPLSKREVIFDRGQRVDTLRPGQGVGLAVAREITEQYEGKIVAGESMLGGARMEVIFGRQHSAPKDE

Variants of: B1
Experiment: enrichment ratio after two sorts for PhoP signalling (ratio (wild type AVST 3.29)); higher = more functional
Conditions: with PhoP (E. coli)
With YQMY the enrichment ratio was ≤ 0.25.
In the case of IMRW, the enrichment ratio is reported as ≤ 0.25.
For KCDH, the enrichment ratio was ≤ 0.25.
In the case of WNFK, the enrichment ratio is reported as ≤ 0.25.
With NFKY the enrichment ratio was ≤ 0.25.
In the case of YWPL, the enrichment ratio is reported as ≤ 0.25.
For YRYL, the enrichment ratio was ≤ 0.25.
In the case of QPPQ, the enrichment ratio is reported as ≤ 0.25.
For DPKW, the enrichment ratio was ≤ 0.25.
Variant GCVM has an enrichment ratio of 3.08.
With QIVN the enrichment ratio was ≤ 0.25.
For YYRP, the enrichment ratio was ≤ 0.25.
Work on ISEG yielded an enrichment ratio of 0.253.
For WFTG, the enrichment ratio was ≤ 0.25.
For YGYW, the enrichment ratio was ≤ 0.25.
For TCIQ, the enrichment ratio was ≤ 0.25.
SCDD was tested, and the enrichment ratio was ≤ 0.25.
For RECI, the enrichment ratio was ≤ 0.25.
With SYWD the enrichment ratio was ≤ 0.25.
For HDLQ, the enrichment ratio was ≤ 0.25.
For EYSA, the enrichment ratio was ≤ 0.25.
With WSSG the enrichment ratio was ≤ 0.25.
With HSVH the enrichment ratio was ≤ 0.25.
With MKQR the enrichment ratio was ≤ 0.25.
For WFSA, the enrichment ratio was ≤ 0.25.
For NFMN, the enrichment ratio was ≤ 0.25.
In the case of TKSG, the enrichment ratio is reported as 1.03.
In the case of FEVE, the enrichment ratio is reported as ≤ 0.25.
In the case of EFGV, the enrichment ratio is reported as ≤ 0.25.
Variant AKSC has an enrichment ratio of 23.2.
For GDPD, the enrichment ratio was ≤ 0.25.
With VWYI the enrichment ratio was ≤ 0.25.
In the case of KPGR, the enrichment ratio is reported as ≤ 0.25.
In the case of RQHS, the enrichment ratio is reported as ≤ 0.25.
In the case of NNYN, the enrichment ratio is reported as ≤ 0.25.
With YKHM the enrichment ratio was ≤ 0.25.
For HEAQ, the enrichment ratio was ≤ 0.25.
For IDQF, the enrichment ratio was ≤ 0.25.
With ALDL the enrichment ratio was ≤ 0.25.
For AGRC, the enrichment ratio was ≤ 0.25.
In the case of CIMV, the enrichment ratio is reported as 12.9.
In the case of NMLT, the enrichment ratio is reported as ≤ 0.25.
For GQKH, the enrichment ratio was ≤ 0.25.
With WGDL the enrichment ratio was ≤ 0.25.
In the case of QSWT, the enrichment ratio is reported as 6.97.
With LFYW the enrichment ratio was ≤ 0.25.
In the case of YDSH, the enrichment ratio is reported as ≤ 0.25.
TYSQ gave an enrichment ratio of 2.49.
For LKTQ, the enrichment ratio was ≤ 0.25.
GENP was tested, and the enrichment ratio was ≤ 0.25.
In the case of SLEM, the enrichment ratio is reported as ≤ 0.25.
In the case of TNDK, the enrichment ratio is reported as ≤ 0.25.
With LHLI the enrichment ratio was ≤ 0.25.
For WATP, the enrichment ratio was ≤ 0.25.
With RNAA the enrichment ratio was ≤ 0.25.
In the case of DEFS, the enrichment ratio is reported as ≤ 0.25.
With GYAS the enrichment ratio was ≤ 0.25.
With TPSD the enrichment ratio was ≤ 0.25.
YDAM was tested, and the enrichment ratio was ≤ 0.25.
In the case of FGCD, the enrichment ratio is reported as ≤ 0.25.
In the case of GMHD, the enrichment ratio is reported as ≤ 0.25.
With RFWD the enrichment ratio was ≤ 0.25.
For ALGN, the enrichment ratio was ≤ 0.25.
In the case of KTDW, the enrichment ratio is reported as ≤ 0.25.
With SIMQ the enrichment ratio was 33.3.
In the case of DWLY, the enrichment ratio is reported as ≤ 0.25.
With FRGM the enrichment ratio was ≤ 0.25.
For DVNN, the enrichment ratio was ≤ 0.25.
With KYAE the enrichment ratio was ≤ 0.25.
For NKFV, the enrichment ratio was ≤ 0.25.
ADAV gave an enrichment ratio of 5.88.
ATIS was tested, and the enrichment ratio was 7.74.
For WSHC, the enrichment ratio was ≤ 0.25.
GPIN was tested, and the enrichment ratio was ≤ 0.25.
In the case of VVAH, the enrichment ratio is reported as ≤ 0.25.
DFWK was tested, and the enrichment ratio was ≤ 0.25.
In the case of KYQE, the enrichment ratio is reported as ≤ 0.25.
With RGKI the enrichment ratio was ≤ 0.25.
SSCF was tested, and the enrichment ratio was 9.17.
MSMV gave an enrichment ratio of 12.7.
INMI was tested, and the enrichment ratio was 4.25.
WQME was tested, and the enrichment ratio was ≤ 0.25.
In the case of VFCE, the enrichment ratio is reported as ≤ 0.25.
In the case of IFQT, the enrichment ratio is reported as 1.13.
In the case of SMMM, the enrichment ratio is reported as 1.81.
In the case of NIMD, the enrichment ratio is reported as ≤ 0.25.
For YYYG, the enrichment ratio was ≤ 0.25.
For RACM, the enrichment ratio was ≤ 0.25.
HKWG was tested, and the enrichment ratio was ≤ 0.25.
For SWSV, the enrichment ratio was ≤ 0.25.
In the case of INPQ, the enrichment ratio is reported as ≤ 0.25.
For KHAN, the enrichment ratio was ≤ 0.25.
With ENSN the enrichment ratio was ≤ 0.25.
With HPAS the enrichment ratio was ≤ 0.25.
VQSA was tested, and the enrichment ratio was ≤ 0.25.
RMFP was tested, and the enrichment ratio was ≤ 0.25.
PQHM was tested, and the enrichment ratio was ≤ 0.25.
YELW was tested, and the enrichment ratio was ≤ 0.25.
In the case of LSQM, the enrichment ratio is reported as ≤ 0.25.
For ITNI, the enrichment ratio was ≤ 0.25.
For RRND, the enrichment ratio was ≤ 0.25.
For WYLP, the enrichment ratio was ≤ 0.25.
AESC showed an enrichment ratio of 32.1.
VIYR was tested, and the enrichment ratio was ≤ 0.25.
For ICLM, the enrichment ratio was 10.6.
In the case of SVGP, the enrichment ratio is reported as ≤ 0.25.
HNWF was tested, and the enrichment ratio was ≤ 0.25.
SLSD was tested, and the enrichment ratio was ≤ 0.25.
With VFSS the enrichment ratio was ≤ 0.25.
With KNSA the enrichment ratio was ≤ 0.25.
With IANQ the enrichment ratio was ≤ 0.25.
For MQWR, the enrichment ratio was ≤ 0.25.
Work on YNSI yielded an enrichment ratio of 0.32.
With GPAS the enrichment ratio was ≤ 0.25.
In the case of YARM, the enrichment ratio is reported as ≤ 0.25.
For LECF, the enrichment ratio was ≤ 0.25.
With PKCF the enrichment ratio was ≤ 0.25.
With RHPH the enrichment ratio was ≤ 0.25.
For TEYK, the enrichment ratio was 0.256.
MTRQ was tested, and the enrichment ratio was ≤ 0.25.
TMVF was tested, and the enrichment ratio was ≤ 0.25.
TGWS was tested, and the enrichment ratio was 10.5.
With YRIR the enrichment ratio was ≤ 0.25.
In the case of LWPQ, the enrichment ratio is reported as ≤ 0.25.
DHKC was tested, and the enrichment ratio was ≤ 0.25.
ARPK was tested, and the enrichment ratio was ≤ 0.25.
In the case of SRAI, the enrichment ratio is reported as ≤ 0.25.
With RGWI the enrichment ratio was ≤ 0.25.
In the case of VIYV, the enrichment ratio is reported as ≤ 0.25.
With ALPH the enrichment ratio was ≤ 0.25.
For QHSI, the enrichment ratio was ≤ 0.25.
For SPAC, the enrichment ratio was ≤ 0.25.
With HNTL the enrichment ratio was 3.09.
With PMLT the enrichment ratio was ≤ 0.25.
With DFKL the enrichment ratio was ≤ 0.25.
For EGRH, the enrichment ratio was ≤ 0.25.
For GAPV, the enrichment ratio was ≤ 0.25.
MQRM was tested, and the enrichment ratio was ≤ 0.25.
ADDA was tested, and the enrichment ratio was ≤ 0.25.
In the case of KAHG, the enrichment ratio is reported as ≤ 0.25.
With KKQH the enrichment ratio was ≤ 0.25.
ESFA was tested, and the enrichment ratio was ≤ 0.25.
For SRND, the enrichment ratio was ≤ 0.25.
KPWL was tested, and the enrichment ratio was ≤ 0.25.
SWYE was tested, and the enrichment ratio was ≤ 0.25.
For NWYF, the enrichment ratio was ≤ 0.25.
For VTHL, the enrichment ratio was ≤ 0.25.
EQIE was tested, and the enrichment ratio was ≤ 0.25.
With FEIE the enrichment ratio was ≤ 0.25.
For KFEW, the enrichment ratio was ≤ 0.25.
In the case of PSMY, the enrichment ratio is reported as ≤ 0.25.
DFAE was tested, and the enrichment ratio was ≤ 0.25.
In the case of NHSS, the enrichment ratio is reported as ≤ 0.25.
